Results on 2 compounds are retold here after PubChem BioAssay AID256 (DTP/NCI, 2004).

Several values for one entry are separate records, joined by “and”; a condition that tells them apart may be missing. Equal values may be shown once. Further values from the same series stand in other lists. Inconclusive results and toxic doses are left out.

In this assay the test system is CD2F1 mice, L1210 leukemia ip, survival T/C. Kind of assay: NCI In Vivo Anticancer Drug Screen. Data for tumor model L1210 Leukemia (intraperitoneal) in CD2F1 (CDF1) mice. The note with it: higher = longer survival. Summed up:
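Transplantable tumor in mice; compound-treated vs vehicle-treated groups. Read-out = treated/control ratio of the measured endpoint.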

For the compound `O=NN(CCCl)C(=O)NCCCl`, the T/C runs as follows: (endpoint: mean survival time, dose: 3.75 mg/kg/injection, schedule: Q01DX001 (ip), vehicle: saline + alcohol) 100 % of control; (endpoint: mean survival time, dose: 3.8 mg/kg/injection, schedule: Q01DX001 (ip), vehicle: saline + alcohol) 106 % of control; (endpoint: mean survival time, dose: 4.0 mg/kg/injection, schedule: Q01DX001 (ip), vehicle: saline + alcohol) 111 % of control; (endpoint: mean survival time, dose: 5.0 mg/kg/injection, schedule: Q01DX001 (ip), vehicle: Klucel (hydroxypropylcellulose) (HPC)) 103 % of control; (endpoint: mean survival time, dose: 5.0 mg/kg/injection, schedule: Q01DX001 (ip), vehicle: saline) 96 % of control; (endpoint: mean survival time, dose: 8.0 mg/kg/injection, schedule: Q01DX009 (ip), vehicle: other) 346 % of control. In addition, the T/C was 636 % of control (endpoint: mean survival time, dose: 14.0 mg/kg/injection, schedule: Q07DX003 (ip), vehicle: saline + alcohol); 356 % of control (endpoint: mean survival time, dose: 18.8 mg/kg/injection, schedule: Q01DX001 (ip), vehicle: saline + alcohol); 460 % of control (2×) and 854 % of control (endpoint: mean survival time, dose: 20.0 mg/kg/injection, schedule: Q07DX003 (ip), vehicle: saline + alcohol); 431 % of control and 535 % of control (endpoint: mean survival time, dose: 25.0 mg/kg/injection, schedule: Q01DX001 (ip), vehicle: saline + alcohol); 520 % of control (2×) and 755 % of control (endpoint: mean survival time, dose: 26.0 mg/kg/injection, schedule: Q07DX003 (ip), vehicle: saline + alcohol); 490 % of control (endpoint: mean survival time, dose: 27.0 mg/kg/injection, schedule: Q01DX001 (ip), vehicle: saline + alcohol). Also, the T/C (endpoint: mean survival time, dose: 30.0 mg/kg/injection, schedule: Q01DX001 (ip), vehicle: Klucel (hydroxypropylcellulose) (HPC)) was 439 % of control; the T/C (endpoint: mean survival time, dose: 32.0 mg/kg/injection, schedule: Q01DX001 (ip), vehicle: saline) is 740 % of control; the T/C (endpoint: mean survival time, dose: 33.0 mg/kg/injection, schedule: Q07DX003 (ip), vehicle: saline + alcohol) was 359 % of control; the T/C (endpoint: mean survival time, dose: 40.0 mg/kg/injection, schedule: Q01DX001 (ip), vehicle: DMSO) was 352 % of control; the T/C (endpoint: mean survival time, dose: 64.0 mg/kg/injection, schedule: Q01DX001 (ip), vehicle: other) was 602 % of control; the T/C (endpoint: mean survival time, dose: 128.0 mg/kg/injection, schedule: Q01DX001 (ip), vehicle: saline + alcohol) was 86 % of control. Besides, the T/C was 108 % of control (endpoint: median survival time, dose: 5.0 mg/kg/injection, schedule: Q01DX001 (ip), vehicle: Klucel (hydroxypropylcellulose) (HPC)); 365 % of control (endpoint: median survival time, dose: 7.0 mg/kg/injection, schedule: Q01DX009 (ip), vehicle: saline + alcohol); 370 % of control (endpoint: median survival time, dose: 10.0 mg/kg/injection, schedule: Q01DX005 (ip), vehicle: saline); 444 % of control (endpoint: median survival time, dose: 10.0 mg/kg/injection, schedule: Q03DX003 (ip), vehicle: DMSO); 370 % of control (endpoint: median survival time, dose: 15.0 mg/kg/injection, schedule: Q01DX005 (ip), vehicle: saline); 370 % of control and 711 % of control (endpoint: median survival time, dose: 20.0 mg/kg/injection, schedule: Q01DX001 (ip), vehicle: saline). Also, the T/C reads like this: (endpoint: median survival time, dose: 20.0 mg/kg/injection, schedule: Q03DX003 (ip), vehicle: DMSO) 608 % of control and 714 % of control; (endpoint: median survival time, dose: 20.0 mg/kg/injection, schedule: Q04DX003 (ip), vehicle: saline + alcohol) 704 % of control; (endpoint: median survival time, dose: 20.0 mg/kg/injection, schedule: Q07DX003 (ip), vehicle: saline + alcohol) 488 % of control; (endpoint: median survival time, dose: 26.0 mg/kg/injection, schedule: Q07DX003 (ip), vehicle: saline + alcohol) 713 % of control; (endpoint: median survival time, dose: 30.0 mg/kg/injection, schedule: Q01DX001 (ip), vehicle: saline) 517 % of control; (endpoint: median survival time, dose: 32.0 mg/kg/injection, schedule: Q01DX001 (ip), vehicle: saline + alcohol) 412 % of control. Moreover, the T/C (endpoint: median survival time, dose: 33.0 mg/kg/injection, schedule: Q07DX003 (ip), vehicle: saline + alcohol) is 354 % of control; the T/C (endpoint: median survival time, dose: 40.0 mg/kg/injection, schedule: Q01DX001 (ip), vehicle: Klucel (hydroxypropylcellulose) (HPC)) was 621 % of control; the T/C (endpoint: median survival time, dose: 40.0 mg/kg/injection, schedule: Q01DX001 (ip), vehicle: saline) is 370 % of control; the T/C (endpoint: median survival time, dose: 53.3 mg/kg/injection, schedule: Q01DX001 (ip), vehicle: saline + alcohol) is 103 % of control; the T/C (endpoint: median survival time, dose: 80.0 mg/kg/injection, schedule: Q01DX001 (ip), vehicle: Klucel (hydroxypropylcellulose) (HPC)) is 103 % of control; the T/C (endpoint: median survival time, dose: 160.0 mg/kg/injection, schedule: Q01DX001 (ip), vehicle: Klucel (hydroxypropylcellulose) (HPC)) is 95 % of control.
Turning to `O=C(O)CCCc1ccc(N(CCCl)CCCl)cc1`, the T/C is 112 % of control (endpoint: mean survival time, dose: 7.5 mg/kg/injection, schedule: Q01DX009 (ip), vehicle: Klucel (hydroxypropylcellulose) (HPC)) and 112 % of control (endpoint: mean survival time, dose: 16.0 mg/kg/injection, schedule: Q03HX016 (ip), vehicle: other).
